Measurements from patent US20240269278A1, “ANTI-CD47 ANTIBODY FOR COMBINED TREATMENT OF BLOOD TUMOR” (Nanjing Shunxin Pharmaceuticals Co., Ltd. of Chiatai …, priority 2021, published 2024).

How the values were obtained:
[1] = Thermostability assay based on Nano DSF (Prometheus NT.48); type: physicochemical
Experimental: The high-throughput protein stability analyzer Prometheus NT.48 is an instrument for acquiring various types of data such as protein molecular structure stability, aggregation stability, and colloid dispersion stability. The melting temperatures (Tm) and the aggregation temperatures (Tagg) of the anti-CD47 chimeric antibodies and the anti-CD47 humanized antibodies were determined using this instrument.

HL60 cells = experiment: Promotion of macrophage phagocytosis of tumor cells (flow cytometry); type: cell-based, human; conditions: CFSE-labeled HL60 cells, human macrophages
How it was run: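 Human blood monocytes differentiated into macrophages with 100 ng/mL M-CSF for 7 days. CFSE-labelled HL60 cells preincubated 1-2 h at 37 °C with anti-CD47 antibodies at 10 or 1 μg/mL, then co-cultured with macrophages 2-4 h. Macrophages stained for CD14/CD11b; phagocytosis rate (%) measured by flow cytometry.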

Molecule | Tagg (aggregation temperature) [1] | Tm (melting temperature) [1] | rate of phagocytosis (HL60 cells; 1 μg/mL antibody) | rate of phagocytosis (HL60 cells; 10 μg/mL antibody)
hz3F10-5.2: humanized anti-CD47 antibody, heavy chain SEQ ID NO: 149, light chain SEQ ID NO: 151 (antibody, heavy chain; light chain) heavy: QVQLVQSGAEVKKPGSSVKVSCKASGYTFSRYWIEWVRQAPGQGLEWMGEFIPGSDTTNYAQKFQGRVTITAEISTNTAYMELSSLRSEDTAVYYCARGGLRRMDYWGQGTLVTVSSASTKGPSVFPLAPCSRSTSESTAALGCLVKDYFPEPVTVSWNSGALTSGVHTFPAVLQSSGLYSLSSVVTVPSSSLGTKTYTCNVDHKPSNTKVDKRV[omitted - human IgG4 Fc with S228P (EU numbers)] light: DIQMTQSPSSLSASVGDRVTITCRASSSVSSTYLHWYQQKPGKAPKLWIYTTSTLASGVPSRFSGSGSGTSYTLTISSLQPEDFATYYCQQFSDSTWTFGQGTKLEIKRTVAAPSVFIFPPSDEQLKSGTASVVCLLNNFYPREAKVQWKVDNALQSGNSQESVTEQDSKDSTYSLSSTLTLSKADYEKHKVYACEVTHQGLSSPVTKSFNRGEC | 62.67 °C | 68.69 °C | 47.06% | 29.6%
hz3F10-2.1: humanized anti-CD47 antibody, heavy chain SEQ ID NO: 113, light chain SEQ ID NO: 115 (antibody, heavy chain; light chain) heavy: QVQLVQSGAEVKKPGSSVKVSCKASGYTFSRYWIEWVRQAPGQGLEWMGEFIPGSDTTNYAQKFQGRVTITADISTSTAYMELSSLRSEDTAVYYCARGGLRRMDYWGQGTLVTVSSASTKGPSVFPLAPCSRSTSESTAALGCLVKDYFPEPVTVSWNSGALTSGVHTFPAVLQSSGLYSLSSVVTVPSSSLGTKTYTCNVDHKPSNTKVDKRV[omitted - human IgG4 Fc with S228P (EU numbers)] light: DIQMTQSPSSLSASVGDRVTITCRASSSVSSTYLHWYQQKPGKAPKLLIYTTSTLASGVPSRFSGSGSGTDFTLTISSLQPEDFATYYCQQFSESTWTFGQGTKLEIKRTVAAPSVFIFPPSDEQLKSGTASVVCLLNNFYPREAKVQWKVDNALQSGNSQESVTEQDSKDSTYSLSSTLTLSKADYEKHKVYACEVTHQGLSSPVTKSFNRGEC | 72.68 °C | 68.44 °C | 47.24% | 55.23%
hz3F10-3.1: humanized anti-CD47 antibody, heavy chain SEQ ID NO: 117, light chain SEQ ID NO: 119 (antibody, heavy chain; light chain) heavy: QVQLVQSGAEVKKPGSSVKVSCKASGYTFSRYWIEWVRQAPGQGLEWMGEFIPGSDTTNYAQKFQGRVTITADISTSTAYMELSSLRSEDTAVYYCARGGLRRMDYWGQGTLVTVSSASTKGPSVFPLAPCSRSTSESTAALGCLVKDYFPEPVTVSWNSGALTSGVHTFPAVLQSSGLYSLSSVVTVPSSSLGTKTYTCNVDHKPSNTKVDKRV[omitted - human IgG4 Fc with S228P (EU numbers)] light: DIQMTQSPSSLSASVGDRVTITCRASSSVSSTYLHWYQQKPGKAPKLLIYTTSTLASGVPSRFSGSGSGTSYTLTISSLQPEDFATYYCQQFSDSTWTFGQGTKLEIKRTVAAPSVFIFPPSDEQLKSGTASVVCLLNNFYPREAKVQWKVDNALQSGNSQESVTEQDSKDSTYSLSSTLTLSKADYEKHKVYACEVTHQGLSSPVTKSFNRGEC | 61.53 °C | 68.15 °C | 50.60% | 58.72%
hz3F10-6.2: humanized anti-CD47 antibody, heavy chain SEQ ID NO: 153, light chain SEQ ID NO: 155 (antibody, heavy chain; light chain) heavy: QVQLVQSGAEVKKPGSSVKVSCKASGYTFSRYWIEWVRQAPGQGLEWMGEFIPGSDTTNYAQKFQGRVTITAEISTNTAYMELSSLRSEDTAVYYCARGGLRRMDYWGQGTLVTVSSASTKGPSVFPLAPCSRSTSESTAALGCLVKDYFPEPVTVSWNSGALTSGVHTFPAVLQSSGLYSLSSVVTVPSSSLGTKTYTCNVDHKPSNTKVDKRV[omitted - human IgG4 Fc with S228P (EU numbers)] light: DIQMTQSPSSLSASVGDRVTITCRASSSVSSTYLHWYQQKPGKAPKLWIYTTSTLASGVPSRFSGSGSGTSYTLTISSLQPEDFATYYCQQFSESTWTFGQGTKLEIKRTVAAPSVFIFPPSDEQLKSGTASVVCLLNNFYPREAKVQWKVDNALQSGNSQESVTEQDSKDSTYSLSSTLTLSKADYEKHKVYACEVTHQGLSSPVTKSFNRGEC | 61.91 °C | 68.64 °C | 49.32% | 44.19%
hz3F10-1.1: humanized anti-CD47 antibody, heavy chain SEQ ID NO: 109, light chain SEQ ID NO: 111 (antibody, heavy chain; light chain) heavy: QVQLVQSGAEVKKPGSSVKVSCKASGYTFSRYWIEWVRQAPGQGLEWMGEFIPGSDTTNYAQKFQGRVTITADISTSTAYMELSSLRSEDTAVYYCARGGLRRMDYWGQGTLVTVSSASTKGPSVFPLAPCSRSTSESTAALGCLVKDYFPEPVTVSWNSGALTSGVHTFPAVLQSSGLYSLSSVVTVPSSSLGTKTYTCNVDHKPSNTKVDKRV[omitted - human IgG4 Fc with S228P (EU numbers)] light: DIQMTQSPSSLSASVGDRVTITCRASSSVSSTYLHWYQQKPGKAPKLLIYTTSTLASGVPSRFSGSGSGTDFTLTISSLQPEDFATYYCQQFSDSTWTFGQGTKLEIKRTVAAPSVFIFPPSDEQLKSGTASVVCLLNNFYPREAKVQWKVDNALQSGNSQESVTEQDSKDSTYSLSSTLTLSKADYEKHKVYACEVTHQGLSSPVTKSFNRGEC | 72.68 °C | 68.44 °C | 41.25% | 43.10%
hz16E5-1.1: humanized anti-CD47 antibody, heavy chain SEQ ID NO: 157, light chain SEQ ID NO: 159 (antibody, heavy chain; light chain) heavy: QVQLVQSGAEVKKPGASVKVSCKASGYTFTNYGMNWVRQAPGQGLEWMGWINTNTGEPTYAQKLQGRVTMTLDTSTRTAYMELRSLRSDDTAVYYCARFSHLRGPMDYWGQGTLVTVSSASTKGPSVFPLAPCSRSTSESTAALGCLVKDYFPEPVTVSWNSGALTSGVHTFPAVLQSSGLYSLSSVVTVPSSSLGTKTYTCNVDHKPSNTKVDKRV[omitted - human IgG4 Fc with S228P (EU numbers)] light: DIQMTQSPSSLSASVGDRVTITCRSSQSLVHSNGYTYLHWYQQKPGKAPKLLIYKVSNRFSGVPSRFSGSGSGTDFTLTISSLQPEDFATYYCSQSTHVPPTFGQGTKLEIKRTVAAPSVFIFPPSDEQLKSGTASVVCLLNNFYPREAKVQWKVDNALQSGNSQESVTEQDSKDSTYSLSSTLTLSKADYEKHKVYACEVTHQGLSSPVTKSFNRGEC | 61.87 °C | 68.21 °C | 14.79% | 4.02%
hz16E5-3.1: humanized anti-CD47 antibody, heavy chain SEQ ID NO: 173, light chain SEQ ID NO: 175 (antibody, heavy chain; light chain) heavy: QVQLVQSGAEVKKPGASVKVSCKASGYTFTNYGMNWVRQAPGQGLEWMGWINTNTGEPTYAQKLQGRVTMTLDTSTRTAYMELRSLRSDDTAVYYCARFSHLRGPMDYWGQGTLVTVSSASTKGPSVFPLAPCSRSTSESTAALGCLVKDYFPEPVTVSWNSGALTSGVHTFPAVLQSSGLYSLSSVVTVPSSSLGTKTYTCNVDHKPSNTKVDKRV[omitted - human IgG4 Fc with S228P (EU numbers)] light: DAQMTQSPSSLSASVGDRVTITCRSSQSLVHSNGYTYLHWYQQKPGKAPKLLIYKVSNRFSGVPSRFSGSGSGTDFTLTISSLQPEDFATYYCSQSTHVPPTFGQGTKLEIKRTVAAPSVFIFPPSDEQLKSGTASVVCLLNNFYPREAKVQWKVDNALQSGNSQESVTEQDSKDSTYSLSSTLTLSKADYEKHKVYACEVTHQGLSSPVTKSFNRGEC | 61.84 °C | 69.20 °C | 6.37% | 24.19%
